Where “and” joins values, the source holds several entries; their conditions need not be identical. Identical values can stand only once. About 1,200 (2.5%) of roughly 48,000 compounds were called active. Inconclusive results (about 2%) are left out.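 The calls were made as follows: active = activation of at least 60% and not above a set upper limit (about 1 call in 100 departs from these limits); inconclusive = activation of 40% to 60%, or above that upper limit; inactive = activation under 40%.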 The list shows a part of the results.
Molecular target: Probable G-protein coupled receptor 32 (Homo sapiens) (UniProt O75388)
Assay: qHTS for Agonists of Human Resolvin D1 Receptor DRV1; also: 0% is about no effect
Conditions: CHO-K1 GPR32 beta-arrestin PathHunter luminescence, 90 min; at 76.9 µM; active compounds read high; zero percent set by DMSO-only wells
How it was run: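 PathHunter beta-arrestin recruitment in CHO-K1 cells stably expressing ProLink-tagged GPR32. Cells were exposed to compound for 90 min at 37 C, then chemiluminescence was read after 1 h detection at ambient temperature; DMSO served as basal control.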

UniProt O75388, sequence (O75388 whole entry, looked up): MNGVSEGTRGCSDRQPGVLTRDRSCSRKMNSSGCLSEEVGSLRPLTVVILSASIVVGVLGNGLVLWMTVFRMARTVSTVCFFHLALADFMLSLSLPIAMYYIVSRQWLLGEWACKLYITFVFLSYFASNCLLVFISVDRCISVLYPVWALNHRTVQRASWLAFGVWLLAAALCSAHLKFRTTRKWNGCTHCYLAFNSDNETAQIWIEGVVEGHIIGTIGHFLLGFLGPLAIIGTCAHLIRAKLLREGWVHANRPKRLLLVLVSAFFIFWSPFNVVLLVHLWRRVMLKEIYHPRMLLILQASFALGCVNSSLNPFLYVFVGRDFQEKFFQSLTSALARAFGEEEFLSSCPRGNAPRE

activation, inactive:
Cc1c(Cl)cccc1NC(=O)c1ncn(-c2ccccc2)n1 -2.26%
COc1cccc(NC(=O)CC(C)S(=O)(=O)c2ccc3c(c2)NC(=O)CO3)c1 (stereo not drawn) 1.3%
Cc1cc(C)cc(NS(=O)(=O)c2ccc3c(c2)CCCN3C(=O)C2CCC2)c1 -0.582%
COc1ccc(-n2ncc(C(=O)N3CCc4ccccc4C3)c2C2CCN(C(=O)OC(C)(C)C)CC2)cc1 -11.1%
CC(C(=O)O)c1ccc2c(c1)Cc1cccnc1O2 (stereo not drawn) -1.26%
CCc1ccc2oc(C(=O)Nc3nonc3CC)c(C)c2c1 39%
O=C(Nc1ccc(Br)cc1F)c1ncoc1-c1ccco1 -4.99%
C[C@H]1COc2c(C3(N)CC3)c(F)cc3c(=O)c(C(=O)O)cn1c23 -4.42%
Cc1oc2ncn(C)c(=O)c2c1C(=O)NCCCN1CCCC(C)C1 (stereo not drawn) -6.81%
COc1ccc(-c2cc(C(F)(F)F)n3nc(C(=O)NCC45CC6CC(CC(C6)C4)C5)cc3n2)cc1 -7.76%
O=C(COc1ccccc1)N(Cc1cccnc1)c1nc2ccc(F)cc2s1 -23.7%
CCOc1cc(-c2nc(-c3ccc(Br)cc3)no2)cc(OCC)c1OCC 0.03%
COc1ccc(CNC(=O)CN(c2cc(C)cc(C)c2)S(=O)(=O)c2c(C)[nH]c(=O)[nH]c2=O)cc1 -12.2%
COCCCNC(=O)c1ccc2c(=O)n(Cc3ccc(OC)cc3)c(=O)[nH]c2c1 42.1%
O=C(CN1C(=O)COc2ccc(S(=O)(=O)N3CCOCC3)cc21)N1CCN(c2ccccc2)CC1 -6.14%
Cc1nc(-c2ccc(C)c(S(=O)(=O)N3CCC(C(=O)NCc4ccc(Cl)cc4)CC3)c2)no1 -7.86%
COc1ccc(CCNC(=O)C2CCCN(c3nc4c(C)cc(C)cc4s3)C2)cc1OC (stereo not drawn) -6.71%
CSc1ccc2c(c1)C(N1CCN(C)CC1)Cc1ccccc1S2 (stereo not drawn) 39.7% and -31.1%
COc1ccc(C2=C(C)C(=O)N(Cc3ccc(C(=O)NCc4ccc(C)cc4)cc3)S2(=O)=O)cc1 7.28%
CC(C)(C)C(=O)Oc1ccc(S(=O)(=O)Nc2ccccc2C(=O)NCC(=O)O)cc1 -11.2%
Cc1cccc(CN2CCN(CC(=O)NCc3ccc(Cl)cc3)C2=O)c1 23.7%
Cc1ccc(S(=O)(=O)C(CNC(=O)c2ccccc2F)c2cccs2)cc1 (stereo not drawn) -7.26%
Cc1cccc(CSc2nc3c(c(=O)[nH]2)C(c2cccc(O)c2)CC(=O)N3)c1 (stereo not drawn) 12.2%
CCOC(=O)c1c(NC(=O)c2cc(C(C)C)on2)sc(C)c1C -3.09%
CCOc1ccc(-n2c(=O)c3c4c(sc3n(CC(=O)Nc3cccc(C(F)(F)F)c3)c2=O)CCCCC4)cc1 4.46%
COc1ccccc1NC(=O)C(Cc1ccccc1)NS(=O)(=O)c1ccc2c(c1)c(=O)n(C)c(=O)n2C (stereo not drawn) -0.883%
O=C(Nc1ccc2oc(-c3ccc4ccccc4c3)nc2c1)c1ccccc1F -7.17%
O=C(OCC1CCCO1)c1ccc2c(c1)N(Cc1ccccc1Cl)C(=O)c1ccccc1S2(=O)=O (stereo not drawn) -0.438%
O=C(COc1ccccc1)Nc1nnc(S(=O)(=O)N2CCCC2)s1 6.3%
CN(Cc1ccccc1)c1ncnc2onc(-c3ccc(F)cc3)c12 34.1%
CCCCOc1cccc(NC(=O)CSc2nnc(C)s2)c1 12.6%
O=C(NCc1ccc(F)cc1)c1c(O)nc2ccccn2c1=O -5.13%
CCCC(=O)OCc1cnc(C)c2oc(=O)c(C(=O)Nc3ccccc3)cc12 -9.3%
O=C(Nc1ccccc1)c1ccc(Br)c(S(=O)(=O)N2CCCCC2)c1 -16%
COc1ccc(NC(=O)COc2ccc(S(=O)(=O)NC3CCCCC3)cc2)cc1OC 38.1%
COc1ccc(OC)c(NC(=O)CSc2nc3ccccc3nc2N2CCCCC2)c1 -20.5%
COc1ccc(Br)cc1C1Sc2ccccc2NC2=C1C(=O)c1ccccc12 (stereo not drawn) -19%
O=C(Nc1cccc(Cl)c1)c1cnc[nH]1 43.3%
Cc1ccc2c(=O)cc(CSCC(=O)Nc3nnc(C)s3)[nH]c2c1 -4%
CC(NC(=O)CCNS(=O)(=O)c1cccc2nsnc12)c1ccccc1 (stereo not drawn) 11%
CCOCCCn1c(SCC(=O)Nc2ccc(C)cc2)nc2ccccc2c1=O -27.7%
Cc1cc(C)n(C(C)CC(=O)NCc2ccc(N(C)C)cc2)n1 (stereo not drawn) -2.1%
COC(=O)c1cc2sccc2n1Cc1nc(-c2ccc(Cl)cc2)oc1C 6.59%
CCc1ccccc1NC(=O)c1ccc2c(c1)N(Cc1cc(C)ccc1C)C(=O)c1ccccc1S2(=O)=O -3.33%
COc1cc(Cl)c(C)cc1NC(=O)Cn1ncc2c([nH]c3ccccc32)c1=O -11.5%
COc1cccc(C(c2c(O)cc(C)n(Cc3ccco3)c2=O)N2CCN(c3ccccc3)CC2)c1 (stereo not drawn) -16.7%
O=C(CSc1nccn1Cc1ccc(Cl)cc1)Nc1ccc2c(c1)OCCO2 -7.31%
COc1ccccc1NC(=O)C1=C(C)Nc2nc(SCc3ccccc3C)nn2C1CC(C)C (stereo not drawn) -2.82%
COc1ccc(CNC(=O)C(C)n2ccc3cc(S(=O)(=O)N4CCCC4)ccc32)cc1OC (stereo not drawn) -3.87%
Cc1cc(C)c(NC(=O)C2CCN(c3nnc(C)c4c(C)n(-c5ccccc5)nc34)CC2)c(C)c1 -23.6%
COc1ccc(-n2cc(-c3ccccc3)c3c(NCCc4ccc(OC)c(OC)c4)ncnc32)cc1 -33.7%
CCN1CCN(c2cc3c(cc2F)c(=O)c(S(=O)(=O)c2cc(C)cc(C)c2)cn3CC)CC1 -5.09%
CCc1ccc(N2CCn3c2nc2c3c(=O)n(CCCc3ccccc3)c(=O)n2C)cc1 12.5%
CCOc1ccc(-c2nonc2NC(=O)COc2ccccc2)cc1 -0.727%
CCCc1cnc2c(c1SCC(=O)Nc1cccc(C)c1C)c(=O)n(C)c(=O)n2C -1.2%
CCOC(=O)c1ccc(NC(=O)c2c(NCc3cc(OC)c(OC)cc3OC)sc3c2CCCC3)cc1 -15%
CC1=C(C(=O)OCC2CCCCC2)C(c2cccc(F)c2F)CC(=O)N1 (stereo not drawn) 0.935%
COc1ccc(NC(=O)Cn2nnc(C(=O)Nc3ccc(C)c(F)c3)c2N)cc1Cl -8.75%
Cn1c(=O)oc2cc(S(=O)(=O)N3CCCC(C(=O)N4CCN(c5cccc(Cl)c5)CC4)C3)ccc21 (stereo not drawn) 37.3%
O=C(NCCCCc1ccccc1)c1nn(-c2ccccc2)nc1CO -7.72%
Cc1ccc(-n2c(-c3ccco3)nc3c(cnn3-c3ccc(C)cc3)c2=O)cc1 0.371%
O=C(Cc1ccccc1F)N1CCC(c2nc3c(nnn3Cc3cccc(Cl)c3)c(=O)[nH]2)CC1 -18.9%
Cc1cc(C)cc(OCCn2c(CCNC(=O)C3CCCCC3)nc3ccccc32)c1 -19.5%
COc1ccc(CNC(=O)CN(c2ccc(OC)cc2)S(=O)(=O)c2c(C)[nH]c(=O)[nH]c2=O)cc1 -16.6%
NS(=O)(=O)c1cc(C(=O)O)cc(N2CCCC2)c1Oc1ccccc1 13.4%
O=C(CC1(O)C(=O)N(Cc2ccccc2)c2ccc(Br)cc21)c1ccccc1 (stereo not drawn) 43.7%
CCOc1ccc(NC(=O)c2c(NC(=O)c3ccccc3Br)sc3c2CCC(C)C3)cc1 (stereo not drawn) -10.1%
COc1ccc(OC)c(NC(=O)N(C)CCc2c(C)nn(C)c2C)c1 -1.23%
CCC(=O)N1CCc2cc(Br)cc(S(=O)(=O)N(CC)Cc3ccccc3)c21 24.4%
CCOc1ccc(NC(=O)CC2C(=O)N(c3ccc(C)cc3)C(=O)N2Cc2ccc(OC)cc2)cc1 (stereo not drawn) -11%
Cc1nc(-c2cccc(F)c2)sc1CCNC(=O)C(=O)Nc1ccc2c(c1)OCO2 34.8%
CCc1cccc(C)c1NC(=O)c1cn2c3c(ccc(Cl)c3c1=O)OC(C)C2 (stereo not drawn) 14.8%
Cc1ccc(-c2nc3ncccc3o2)cc1NC(=O)c1ccc(-c2cccc(Cl)c2C)o1 -5.85%
COC(=O)CSc1ccc2nnc(CCNS(=O)(=O)c3ccccc3)n2n1 -3.43%
Cc1cc(-c2nc3ncccc3o2)ccc1NC(=O)c1ccc(Cl)cc1 1.58%
CCOc1ccc(S(=O)(=O)NCC(c2ccc(N(C)C)cc2)N2CCc3ccccc32)cc1 (stereo not drawn) -23.6%
CCCCN(C)S(=O)(=O)c1cc(-c2cc(C)no2)ccc1C -23%
Cc1cc(C)c2oc(C(=O)Nc3c(C(=O)Nc4ccccc4)oc4ccccc34)cc(=O)c2c1 -17.3%
CCCCn1cc(S(=O)(=O)c2ccc(Cl)cc2)c(=O)c2cc(F)c(N3CCCCC3)cc21 -9.39%
Cn1c(SCc2ccc(F)cc2)nc2ccc(C(=O)NCc3ccccc3)cc21 13.6%
COc1cc2c(-c3ccccc3Cl)nc3c(c(C)nn3-c3ccccc3)c2cc1OC 9.74%
Cc1cccc(C(=O)Nc2ccccc2C(=O)OCc2cc(=O)n3nc(C4CC4)sc3n2)c1 -0.893%
CCOC(=O)c1c(-c2ccc(OC)c(OC)c2)csc1NC(=O)c1ccc(F)cc1 25.4%

— PubChem BioAssay AID1346428 (National Center for Advancing Translational Sciences (NCATS), 2018)
